# Some of the results follow. The list includes weakly bound sequences.
# Target: MaxL homodimer (UniProt P61244)
# Assay: universal protein-binding microarray (PBM)
# Settings: PBS-based mixture, 10 nM His-tagged protein dimer, 2% milk, 200 ng/uL BSA, 50 ng/uL salmon testes DNA, 0.02% TX-100; detection with Alexa 488 anti-His …; high values mean tight binding; most listed sequences are background and not binding sites; double strand, one strand shown
# Chain of UniProt P61244 (P61244 whole entry): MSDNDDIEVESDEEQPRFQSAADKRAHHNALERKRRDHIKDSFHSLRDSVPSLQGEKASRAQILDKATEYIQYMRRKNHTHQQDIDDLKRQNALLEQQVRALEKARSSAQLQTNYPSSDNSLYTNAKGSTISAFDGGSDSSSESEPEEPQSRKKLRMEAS
row,Sequence,binding signal (normalized occupancy)
1,AACTGGGT,0.0709
2,AATGTAGC,0.0788
3,CTCAGACA,0.0793
4,CAGAGGGG,0.0714
5,AAAAACAA,0.0692
6,CAAGGAAC,0.079
7,CCTGATAC,0.0821
8,CAGTCTAG,0.067
9,AACGGAAC,0.0734
10,CAATCATA,0.0876
11,CTCGATAA,0.0739
12,GATCGAGC,0.0745
13,ACTCCGAC,0.0724
14,AGGAGGTA,0.0777
15,TCAGTAAA,0.0712
16,CCCCAGAG,0.0676
17,CGTAAACA,0.0753
18,CACCCACG,0.0964
19,CGATCGTA,0.0711
20,ACGAGGAG,0.0882
21,ACTTACTC,0.07
22,ACCACGGG,0.0834
23,CGTGTATA,0.0906
24,AAGCATGG,0.11
25,TCTCCTCA,0.0837

row,Sequence,binding signal (normalized occupancy)
1,CAGGTAAG,0.0782
2,CCATATAA,0.0848
3,ACCTCACG,0.0869
4,AGCGTACC,0.0675
5,GGTAGATA,0.0813
6,ATAGGCCG,0.0705
7,CCAAGCTA,0.0731
8,GCGACGGA,0.069
9,CCACAGGA,0.0722
10,GTTGAGTA,0.0752
11,ACCTTGTG,0.0883
12,CCTAGGCC,0.069
13,CGCCGTCA,0.0797
14,AGTACGGG,0.0741
15,AACATAAG,0.0778
16,ACTAAACA,0.0775
17,ACCCAGCG,0.0726
18,CTACGCGC,0.0727
19,ATTTATGG,0.0826
20,ACGCGCCT,0.0828
21,ATAGTGGG,0.0782
22,GACGCACA,0.0845
23,CGTGCGCC,0.0922
24,CGCGGCCA,0.071
25,AGCTCGTA,0.07

row,Sequence,binding signal (normalized occupancy)
1,ATAGTTTA,0.073
2,AAATGGTG,0.0754
3,AGTACGAT,0.0793
4,CCACTGCA,0.0761
5,AGGCTCGC,0.0699
6,ATCGATTA,0.0735
7,ACTCCATC,0.0768
8,GAGCAGAA,0.0709
9,CACGTTTC,0.105
10,CGGATGTA,0.0773
11,GCTCTTAA,0.0748
12,TCTTCCAA,0.0756
13,TAACGTAA,0.079
14,ATTTATAC,0.0745
15,CCGTGGAG,0.0796
16,ATCGGGAC,0.0751
17,ACAGTTGA,0.0742
18,GACCGAGA,0.0682
19,CACGGACA,0.0758
20,ACCAAGAC,0.0733
21,ACAGGTCG,0.0751
22,CGAAATAG,0.0683
23,GGAGGGAC,0.0689
24,CCGGAAGC,0.0674
25,CCCCCCGA,0.0822

row,Sequence,binding signal (normalized occupancy)
1,TAATCACA,0.0826
2,AATTATAC,0.0757
3,ATAGTGTG,0.0876
4,TAAAACAA,0.0728
5,AACCGGCG,0.0691
6,AGAAGTAA,0.0742
7,ACATGCGG,0.129
8,GGAATAAC,0.0748
9,CCCGAACC,0.0685
10,CACATCCG,0.077
11,GAATCGGA,0.0706
12,GGTTAGTA,0.0806
13,TGCCCCAA,0.0762
14,CCCTCAAC,0.0749
15,CGGTCTTA,0.0739
16,GATCCATA,0.0812
17,TCGAATAA,0.0757
18,ATTCTCTA,0.0764
19,GGTGAATA,0.073
20,CAGGCGAA,0.0678
21,ACGCTACT,0.0732
22,AAGGAACG,0.0758
23,GAATGTAA,0.0758
24,AGGCATGA,0.091
25,CTGAACGC,0.0734

row,Sequence,binding signal (normalized occupancy)
1,AAACTCAG,0.0711
2,CTAAACAA,0.077
3,ATTGGCCC,0.0756
4,GTAGACGA,0.0702
5,ACTCAGAC,0.0699
6,AGGTTCCG,0.0728
7,ACTACACG,0.0897
8,ACCTAACA,0.0777
9,GCAGAATA,0.0753
10,ACTTGTGG,0.0777
11,TGATCACA,0.0795
12,ACATTGGG,0.085
13,CACACTGA,0.0757
14,AGGAACAC,0.0726
15,CCTTCTTA,0.0756
16,ACCGAGGT,0.0689
17,CCAGGCAG,0.0677
18,GCCTTGCA,0.0698
19,CAAGGCCG,0.0691
20,AAAGGACC,0.0678
21,AGCGCACG,0.0877
22,CAAAGCCC,0.0672
23,AACAGTGT,0.0763
24,ACCACCTC,0.0834
25,AAAGAGAA,0.0711

row,Sequence,binding signal (normalized occupancy)
1,GGACATCC,0.0769
2,ACAATCGC,0.0791
3,GTATTATA,0.0781
4,CTATGATA,0.0805
5,GCCTCAAA,0.0708
6,AGATAAGC,0.0766
7,TACGACCA,0.0794
8,CTAGGTCA,0.0724
9,CCTAGTTC,0.0691
10,AGTTTACA,0.0773
11,ATTTTGCG,0.0728
12,CTGATCAA,0.0813
13,ACATCAGA,0.0759
14,ACGCTCCT,0.0753
15,CCGTTCCA,0.0724
16,AGGGTTTG,0.0716
17,ACCTTAAG,0.0714
18,CCCTCGAG,0.0761
19,CAGCCAGC,0.0754
20,CATTGTCC,0.076
21,GCTCCTTA,0.0685
22,CGCGTAAG,0.0752
23,CAAGTGGC,0.0744
24,CTCGAATA,0.0727
25,GGGGTGTA,0.0905

row,Sequence,binding signal (normalized occupancy)
1,CGTAGGCC,0.0746
2,GATCTCAC,0.0769
3,AGTACCGG,0.0705
4,CATGCGCC,0.111
5,TGGGGTAA,0.0814
6,ATGAGCGA,0.0715
7,ATCATCTC,0.076
8,CTATGTGA,0.0827
9,AAAATCGG,0.0732
10,CCGCCGTA,0.0682
11,AGGTGTTC,0.0811
12,CAAGACAC,0.0739
13,GTGCAAAC,0.0754
14,CGTGGGAG,0.0916
15,TATGCCGA,0.0757
16,CCTATACG,0.0802
17,CGTTATCC,0.0912
18,CATGAGTA,0.0969
19,CGAATTCC,0.0757
20,ATTCCCAA,0.0722
21,ATGGTGAA,0.0803
22,GAGAGGCC,0.0664

# Reference: publication PMC4242493
